Source: patent publication US20230183366A1 (INSERM INSTITUT NATIONAL DE LA SANT ET DE LA RECHERCH M …, published 2023)

Target: T1, human OX40 on primed human CD4+ T cells (human, UniProt P43489 29-277)
T1 sequence (looked up): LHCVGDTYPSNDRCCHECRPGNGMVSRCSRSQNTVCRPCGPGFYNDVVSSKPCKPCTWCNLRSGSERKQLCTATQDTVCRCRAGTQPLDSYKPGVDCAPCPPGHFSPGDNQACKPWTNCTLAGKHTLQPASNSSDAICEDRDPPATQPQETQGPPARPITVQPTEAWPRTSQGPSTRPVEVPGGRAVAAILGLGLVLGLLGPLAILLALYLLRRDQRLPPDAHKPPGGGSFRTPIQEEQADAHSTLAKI
Experiment: cell-based or functional assay

B1: anti OX40 Ab24-OX40L fusion IgG1 (other)
heavy: QVQLQESGPGLVKPSQTLSLTCAVYGGSFSSGYWNWIRKHPGKGLEYIGYISYNGITYHNPSLKSRITINRDTSKNQYSLQLNSVTPEDTAVYYCARYKYDYDGGHAMDYWGQGTLVTVSSASTKGPSVFPLAPCSRSTSGGTAALGCLVKDYFPEPVTVSWNSGALTSGVHTFPAVLQSSGLYSLSSVVTVPSSSLGTQTYICNVNHKPSNTKVDKRV[human IgG1 Fc and a few adjoining residues left out]
light: DIQMTQSPSSLSASVGDRVTITCRASQDISNYLNWYQQKPGKAPKLLIYYTSKLHSGVPSRFSGSGSGTDYTLTISSLQPEDFATYYCQQGSALPWTFGQGTKVEIKRTVAAPSVFIFPPSDEQLKSGTASVVCLLNNFYPREAKVQWKVDNALQSGNSQESVTEQDSKDSTYSLSSTLTLSKADYEKHKVYACEVTHQGLSSPVTKSFNRGECASQTPTNTISVTPTNNSTPTNNSNPKPNPASHFSALQVSHRYPRIQSIKVQFTEYKKEKGFILTSQKEDEIMKVQNNSVIINCDGFYLISLKGYFSQEVNISLHYQKDEEPLFQLKKVRSVNSLMVASLTYKDKVYLNVTTDNTSLDDFHVNGGELILIHQNPGEFCVLAS
  potency in the CD4+ T cell proliferation and cytokine assay, relative to OX40L IgG1: > 2 logs
